{"source": "the RNAGym collection of RNA variant scans (doi:10.1073/pnas.2313332121)", "parents": {"B1": {"name": "TPR 5TU (parent)", "chain": "GGAUCUUCUCGAUCUAACAAAAAAGACAAAUCUGCCACAAAGCUUGAGAGCAUCUUCGGAUGCAGAGGCGGCAGCCUUCGGUGGCGCGAUAGCGCCAACGUUCUCAACUAUGACACGCAAAACGCGUGCUCCGUUGAAUGGAGUUUAUCAUG"}}, "note": "Variants at the background level are over-represented here.", "data": [{"variants_of": "B1", "experiment": "polymerase ribozyme fitness, log enrichment relative to wild type (log ratio); higher = more active; in vitro selection for triplet polymerase activity", "summary_of_the_method": "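Mutant libraries of each subunit of a heterodimeric triplet polymerase ribozyme were built by PCR and transcribed. Each library went through one round of in vitro selection in triplicate: annealing with biotinylated primer, partner subunit and triplets, frozen incubation at −7 °C, gel excision of extended constructs, streptavidin-bead capture and RT-PCR. Input and output libraries were Illumina-sequenced; only genotypes with ≥10 input reads and ≥1 read per output were kept. Fitness is log2(genotype enrichment/wild-type enrichment), using inverse-variance-weighted replicate averages.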", "values": [{"variant": "GGAUCUUCUCGAUCUAACAAAAAAGACAAAUCUGCCACAAAGCUUGAGAACAUCAUCGGAUGCAGAGGCGGCAGCCUACGGUGCCGCGAUAGCGCCAACGUUCUCAACUAUGACACGCAAAACGCGUGCUCCGUUGAAUGGAGUUUAUCAUG", "note": "[G50A U55A U78A G84C]", "polymerase ribozyme fitness (log ratio)": "≤ -4.2"}, {"variant": "GGAUCUUCUCGAUCUAACAAAAAAGACAAAUCUGCCACAAAGCUUGAGAACAUCGUCGGAUGCAGAGGCGGCAGCCUUCGGUGGCGCGAUAGCGCCGACGUGCUCAACUAUGACACGCAAAACGCGUGCUCCGUUGAAUGGAGUUUAUCAUG", "note": "[G50A U55G A97G U102G]", "polymerase ribozyme fitness (log ratio)": -3.43}, {"variant": "GGAUCUUCUCGAUCUAACAAAAAAGACAAAUCUGCCACAAAGCUUGAGAACAUCGUCGGAUGCAGAGGCGGCAGCCUUCGGUGGCGUGAUAGCGCCAACGUUCUCAACUAUGACACGCAAAACGCGUGCUCCGUUGAAUGGAGUUUAUCAUG", "note": "[G50A U55G C87U]", "polymerase ribozyme fitness (log ratio)": -1.24}, {"variant": "GGAUCUUCUCGAUCUAACAAAAAAGACAAAUCUGCCACAAAGCUUGAGAACAUCUACGGAUGCAGAGGCAGCAGCCUUCGGUGGCGCGAUAGCGCUAACGUUCUCAACUAUGACACGCAAAACGCGUGCUCCGUUGAAUGGACUUUAUUAUG", "note": "[G50A U56A G70A C96U G143C C149U]", "polymerase ribozyme fitness (log ratio)": "≤ -4.2"}, {"variant": "GGAUCUUCUCGAUCUAACAAAAAAGACAAAUCUGCCACAAAGCUUGAGAACAUCUACGGAUGCAGAGGCGGCAGCCUUCCGUGGCGCGAUAGAACCAACGUUCGCAACUAUGACACGCAAAACGCGUGUUCCGUUGAAUGGAGUUUAUCAUG", "note": "[G50A U56A G80C C93A G94A U104G C129U]", "polymerase ribozyme fitness (log ratio)": "≤ -4.2"}, {"variant": "GGAUCUUCUCGAUCUAACAAAAAAGACAAAUCUGCCACAAAGCUUGAGAACAUCUACGGAUGCAGAGGCGGCAGCCUUCGGUGGCACGAUAGCGCCAACGUUCUCAACUAUGACACGCAAAACGCGUGCUCCGUUGAAUGGAGUUUAUCAUG", "note": "[G50A U56A G86A]", "polymerase ribozyme fitness (log ratio)": -3.11}, {"variant": "GGAUCUUCUCGAUCUAACAAAAAAGACAAAUCUGCCACAAAGCUUGAGAACAUCUACGGAUGCAGAGGCGGCAGCCUUCGGAGGCGCGAUAGCGCCAGCGUGCUCAACUAUGACACGCAAAACGCGUGCUCCGUUGAAUGGAGUUUAUCAUG", "note": "[G50A U56A U82A A98G U102G]", "polymerase ribozyme fitness (log ratio)": "≤ -4.2"}, {"variant": "GGAUCUUCUCGAUCUAACAAAAAAGACAAAUCUGCCACAAAGCUUGAGAACAUCUCCGUAUGCAGAGACGGCAGCCUUCGGUGGCGCGAUAGCGCCAACGUUCGCAACUUUGACACGCAAAACGCUUGCUCCGUUGAAUGGAGUUUAUCAUG", "note": "[G50A U56C G59U G68A U104G A110U G126U]", "polymerase ribozyme fitness (log ratio)": "≤ -4.2"}, {"variant": "GGAUCUUCUCGAUCUAACAAAAAAGACAAAUCUGCCACAAAGCUUGAGAACAUCUGCGGAUGCAGAGGCGACAGCCCUCGGUGGCGCGAUAGCCCCAACGUUCUCAACUAUGACACGCAAAACGCGUGCUCCGUUGAAUGGAGUUUAUCAUG", "note": "[G50A U56G G71A U77C G94C]", "polymerase ribozyme fitness (log ratio)": "≤ -4.2"}, {"variant": "GGAUCUUCUCGAUCUAACAAAAAAGACAAAUCUGCCACAAAGCUUGAGAACAUCUGCGGAUGCAGAGGCGGCAGCCUUCUGUGGCGCGAUAGCGCCAACGUUCUCAACUAUGACACGCAAAACGCGUGCUCGGUUGAAUGGAGUUUAUCAUG", "note": "[G50A U56G G80U C132G]", "polymerase ribozyme fitness (log ratio)": "≤ -4.2"}, {"variant": "GGAUCUUCUCGAUCUAACAAAAAAGACAAAUCUGCCACAAAGCUUGAGAACAUCUUCGGAGGCAGAGGCGGCAGACUUCGGUUGCGCGAUAGCGCCAACGUUCUCAGCUAUGACACGCAAAACGCGUGCUCCGUUUAAUGGAGUUUAUCAUG", "note": "[G50A U61G C75A G83U A107G G136U]", "polymerase ribozyme fitness (log ratio)": "≤ -4.2"}, {"variant": "GGAUCUUCUCGAUCUAACAAAAAAGACAAAUCUGCCACAAAGCUUGAGAACAUCUUCGGAUGCAGAGGCGGCAGCCCUCGGUGGCGCGAUAUCGCCAACGUUCUCAACUAUGACACGCAAAACGUGUGCUCCGUUGAAUGGAGUUUAUCAAG", "note": "[G50A U77C G92U C125U U151A]", "polymerase ribozyme fitness (log ratio)": "≤ -4.2"}, {"variant": "GGAUCUUCUCGAUCUAACAAAAAAGACAAAUCUGCCACAAAGCUUGAGAACAUCUUCGGAUGCAGAGGCGGCAGCCGUCGGUGGCACGAUAGCGCCAACGUUCUCAACUAUGACACGCAAAACGCGUGCUCCGUUGAAUGGAGUUUAUCAUG", "note": "[G50A U77G G86A]", "polymerase ribozyme fitness (log ratio)": "≤ -4.2"}, {"variant": "GGAUCUUCUCGAUCUAACAAAAAAGACAAAUCUGCCACAAAGCUUGAGAACAUCUUCGGAUGCAGAGGCGGCAGCCGUCGGUGGCACGAUAGCGCCAACGUUCUCAUCUAUUACACGCAAAACGCGUGCUCCGUUGAAUGGAGUUUAUCAUG", "note": "[G50A U77G G86A A107U G112U]", "polymerase ribozyme fitness (log ratio)": "≤ -4.2"}, {"variant": "GGAUCUUCUCGAUCUAACAAAAAAGACAAAUCUGCCACAAAGCUUGAGAACAUCUUCGGAUGCAGAGGCGGCAGCCUUCGGGGGUGCGAUAGCGCCAACGUUCUCAACUAGGACACGCAAAACGCGUGCUCCGUUGAAUGGAGUUUAUCAUG", "note": "[G50A U82G C85U U111G]", "polymerase ribozyme fitness (log ratio)": "≤ -4.2"}, {"variant": "GGAUCUUCUCGAUCUAACAAAAAAGACAAAUCUGCCACAAAGCUUGAGACCCUGUUCGGAUGCAGAGGCGGCAGCCUUCGGUGGCGCGAUAGCGCCAACGUUCUCAACUAUGACACGCAAAACGCGUGCUCCGUUGAAUGGAGUUUAUCAUG", "note": "[G50C A52C C54G]", "polymerase ribozyme fitness (log ratio)": "≤ -4.2"}, {"variant": "GGAUCUUCUCGAUCUAACAAAAAAGACAAAUCUGCCACAAAGCUUGAGACCCUCUUCGGAUGCAGAGGCGGCAGCCUUCGGUGGCGCGAUAGCGCGUACGUUCUCAACUAUGACACGCAAAACGCGUGCUCCGUUGAAUGGAGUUUUUCAUG", "note": "[G50C A52C C96G A97U A147U]", "polymerase ribozyme fitness (log ratio)": "≤ -4.2"}, {"variant": "GGAUCUUCUCGAUCUAACAAAAAAGACAAAUCUGCCACAAAGCUUGAGACCCUCAUCGGAUGCAGAGGCGGCAGCCUUCGGUGGCGCCAUAGCGCCAACGUUCUCAACUAUGACACGCAAAGCGCGUGCUCCGUUGAAUGGAGUUUUUCAUG", "note": "[G50C A52C U55A G88C A122G A147U]", "polymerase ribozyme fitness (log ratio)": "≤ -4.2"}, {"variant": "GGAUCUUCUCGAUCUAACAAAAAAGACAAAUCUGCCACAAAGCUUGAGACCCUCUUCGGAUGCAGAGGCGGCAGCCCUAGGUGGCGCGAUAGCGCCAACGGUCUCAACUAUGACUCGCAAAACGCGUGCUCCGUUGAAUGGAGUUUAUCAUG", "note": "[G50C A52C U77C C79A U101G A115U]", "polymerase ribozyme fitness (log ratio)": "≤ -4.2"}]}]}
